# Results reported in the supplement of paper PMC11417369.
# The list shows a part of the results.
# Test system: PfHDP1 homeodomain (GST-tagged)
# Assay: gcPBM binding intensity (ln(normalized median fluorescence intensity)); higher = stronger DNA binding
# How it was run: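 Each value is the highest Masliner-normalised natural-log median intensity across replicate spots of either orientation of a probe. The probes were primer-extended double-stranded 36-bp intergenic genomic sequences on an Agilent 4 × 180k array, alongside negative controls, exposed for 1 h to GST-tagged P. falciparum DNA-binding domains expressed in E. coli. Bound protein was picked up with Alexa488 anti-GST antibody and scanned at 488 nm.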
row,Sequence,gcPBM binding intensity (ln)
1,AAATGGACCTAATTATCACACATTATACTCGTTTTC [CACACA_site5996],6.36
2,AGTGAAAAAAAATTTACACACATAAAATATAAACGA [CACACA_site3724],6.64
3,TTTTTAGTTCATTAAACACACAAAAAAAAAAATAAA [CACACA_site6035],6.23
4,TTTTTTATTCTTTTTGCACACAGGAAATTTACAGAT [CACACA_site1090],10.6
5,TAATACTTTTAATCTACACACGCTGAGACATGCTTT [CACACA_site1484],6.14
6,AAAAAAAATATAAGTGGTACTCACATAAAGACATAT [XGTACX_site3709],6.75
7,AAATAAAATACATATAAACACACATATAAACCAACA [CACACA_site8789],7.1
8,TTATATAATCCTTTCAAACACACAAAATATAATTAA [CACACA_site1830],6.48
9,AAAATAAAAAGAAAAAATAAAAAGAAAAAATAAAAA [CACACA_negctrl_site120],5.96
10,TACAATTTATGACACACACACAATAATACCTATATA [CACACA_site6704],6.85
11,TATATATATATATGTGCACACATAAAGATATTATTT [CACACA_site3734],10.6
12,AAAAAAAAAAAACACACACACACACTAGTACATACA [CACACA_site4551],6.93
13,AATAAAATAATAGGCACACATATATATATATATTAT [CACACA_site273],6.71
14,ATATCCTACTTCTAGTGTACATATATGGACTGATGA [XGTACX_site3683],7.04
15,ATATATCTACATATATGTACATATATGTATATGTAT [XGTACX_site5432],6.55
16,GGGAATATATAAGATACACACACAAATTAAATATAA [CACACA_site8898],6.88
17,TGCCCTTTGGTTATAACACACATGCACACGTAAATA [CACACA_site7750],8.79
18,AATTAACCGTGACACACACACATATAAATATAAATA [CACACA_site7790],6.78
19,TATATATATATATATACACACACACCCACCAAAGCG [CACACA_site7904],9.48
20,TTTTTAATACAAAAAAAATAATATGTTATATTTCAA [CACACA_negctrl_site35],5.96
21,ATGAAATATGCACAGTGTACTTTTATGAGGAACATA [XGTACX_site426],9.9
22,AATCCTTTAAAACACACACACAAAAAAAAAAAAAAA [CACACA_site642],6.32

row,Sequence,gcPBM binding intensity (ln)
1,AAAATGTACTTTTTCTAAAGAGTAATGATGCTTGAT [CACACA_negctrl_site1124],6.36
2,TTTAACGTTGAATATACACACATATATTTATTTATA [CACACA_site7695],6.76
3,AATAAAAAAATAAAAAAAAAAAAAAATAAAAAAAAA [GTGCAC_negctrl_site12],5.94
4,CGTATTTTAATATTTACACACTTATTTTTTATATAA [CACACA_site125],6.66
5,TTTTGTAAAAGGTATATATATATATATATATATATA [GTGCAC_negctrl_site734],9.61
6,TTTATATAGAAAAATTGTACGAATTACTTTTTTATA [XGTACX_site6843],5.93
7,TATAGCATATTTCACACACACATAATGAATATTATA [CACACA_site3545],6.46
8,TGCTTCATAAATAAAACATGCAATATAGAAATTAAA [TGCATGCA_site690],6.44
9,TATAGTAAAATTAGGGTGCTTTTGTAACAAAAAAAA,6.71
10,TTATTTTCTTTCTATGCACACGCACGTATTTGCCCA [CACACA_site9104],9.79
11,AAATATATATACCACACACACATACCTCTATTTGTA [CACACA_site1854],6.84
12,AGAGTAGGAAATGGAAAAATAAAATAAATAAATAAA [XGTACX_negctrl_site69],6.4
13,AATAATATAAATATTACACACTAATTGTATTATAGA [CACACA_site6347],6.34
14,TATTAAATATTGTATACATGCAAATACTAGAAAATT [TGCATGCA_site370],7.09
15,AGGAAACAAGAAATGAAGAATCATGTAGAAGGCCCA [GTGCAC_negctrl_site187],6.04
16,TATATAACCGAGTGCACACACAAAAAAAAAGTGAAC [CACACA_site6806],10.8
17,ATATATATGAAACACACACACAAAAAAAAAAAAAAA [CACACA_site3647],6.43
18,ATAACACAAAATTGTTGTACACGTGTTAATAAGTGA [XGTACX_site4452],7.11
19,AATATTTATATAAATGCATGCTGATACAACAGTCTT [TGCATGCA_site21],6.72
20,TAAAGTTATGCAATAACACACATATACAATACATAT [CACACA_site6698],7.96
21,CACAGTGATATAAAAACACACATGAATTCTAATTTC [CACACA_site6884],6.19
22,AGGTATGTCTATAAATGTACATATGAGTTCAATTTC [XGTACX_site2244],6.58

row,Sequence,gcPBM binding intensity (ln)
1,AAATATATATAAACAAGTACATATTTAAAAAAAGGA [XGTACX_site2631],6.51
2,CATAAAAATATTAATAAACACACAATCAGATATTGA [CACACA_site9032],6.37
3,TTCGTAACTGATTCAACACACAAAAGGGGGAAAATT [CACACA_site1754],7.03
4,AAAAAGAAGAATAATACACACAAATTACTTTATATA [CACACA_site6984],6.33
5,TAAATTAAAAAAAATACACACACACCGACACATATA [CACACA_site9084],7.03
6,TATGTTATATAATATTGTACACAAAATGGTTTCTAT [XGTACX_site7686],6.73
7,AATTACAAATATTCATGTACATATTTATAAATACAT [XGTACX_site5430],6.43
8,ATATATATATATATGTGTACATATATTAAGATATAT [XGTACX_site1065],9.44
9,ATATTATAGAAATATACACACATTGTTTTATAGCAT [CACACA_site7177],6.54
10,ATATTACGCACAAAAAAAAAAAAAAAAAAAAAAAAA [CACACA_negctrl_site941],8.67
11,ATGATGTGCTTTAAAAGTACTTAAGTTATATTCTTT [XGTACX_site7127],6.4
12,AAAATTAAAATTTTCACACAGATATATTTACAATTT [CACACA_site5692],6.1
13,TTTATATGTATACAAACATATAAATATAAATGTATT [TGCATGCA_negctrl_site346],6.2
14,TATATATACATATACACACACACACCGATATATATA [CACACA_site8706],7.05
15,TGTTCTATGATTTGTACACACTTTTTTTTAAAATGC [CACACA_site5558],6.84
16,GTTTTGTACATATTCTCACACATATAAAAATACCCA [CACACA_site4446],7.02
17,AAGCATTTAATGTTTTATATAACATGTATTTTTTAT [CACACA_negctrl_site673],6.56
18,TTCATAATAAAAAGGTGTACATATATATATATATAT [XGTACX_site2829],9.47
19,AAAAAAATTTCACATTGTACTTTAATAATATACTAC [XGTACX_site7264],6.12
20,ATAAATATATATTTACGTACATATTATATATATATA [XGTACX_site6172],8.57
21,ACATATAAATTGTGTACACATATATATATATTTTTT [CACACA_site5946],6.94
22,GAATGCATGTAAATATGTACATATATTTAAAAATTT [XGTACX_site6032],6.73

row,Sequence,gcPBM binding intensity (ln)
1,CTTACTTACTTACTCACACACATATACAAAGAAAAA [CACACA_site3347],6.94
2,AAATATATGTTATATGTGCACTTTTTTTTTTTTTTT [GTGCAC_site9667],8.92
3,TTTTACTAAATATATACACACATTATACATATATAT [CACACA_site9081],6.78
4,ATAAATAATAAAAAATGTACACATATAAATATAAAG [XGTACX_site727],6.83
5,ATGATGAAAATAGAAATACACACTAAAAAATAAAAT [CACACA_site1136],6.69
6,AAAACATGTTCAACATGTACACAACAGGATGAATAT [XGTACX_site506],6.94
7,TATCGAGCCATTTTTACATGCAATTATACATAATTT [TGCATGCA_site987],6.73
8,TTCAAATAATTTAAATGTACGTTGCTTTATTAAAAG [XGTACX_site3674],6.14
9,CATGTATACTATAATACACACTATAAAATATACACC [CACACA_site7121],6.96
10,TAAAATGAATATAGGTGTACTTAAAAAAAAGTAAAA [XGTACX_site4613],6.47
11,TAAAAGAAATAATATACACACATATATAAAAATAAA [CACACA_site1329],6.42
12,TAAATTCTTTATAATCGTACATAAATAGAAAAATAA [XGTACX_site601],6.13
13,AAAAAAATATATATATATATATATATATATTTATAT [XGTACX_negctrl_site86],7.62
14,TCTTTTTTTAATAAAACATGCAATATTATATATGTA [TGCATGCA_site236],6.73
15,GTAATTATTAATAAAACATGCGTATAAAATTTTCTC [TGCATGCA_site50],6.58
16,TAAATTCTTTAAAACTTTAAAACAAAAAAAAAAAAA [CACACA_negctrl_site1078],5.95
17,ATAAGAAAATCAAAAAGTACTTTTTACAAAGATAAA [XGTACX_site824],6.51
18,ATATACTATATATAATGTACATATATATTATTATGC [XGTACX_site2957],6.6
19,ATTTTATGATATATTTGTACTTAACATTTGGATATA [XGTACX_site5888],6.39
20,TAGTTTTTTATATATTGTACAAATAATATATTATAT [XGTACX_site2564],6.73
21,AAACAAAAAATATATACACACTAAACATAAAAAAAA [CACACA_site4185],6.7
22,AGTGACACCAAAGGGGTGCAATGAAATTAAAAATAT,8.54
